In PubChem BioAssay AID1508623 (National Center for Advancing Translational Sciences (NCATS), 2021):
In all, about 48,000 compounds went through this assay and about 450 (0.94%) were called active. The inconclusive results got no clear call from the source; some entries with a clear call stand among them for comparison. Calls come from the whole dose curve; as a rule, active = well fitted inhibition curve with a large enough effect; inconclusive = small, poorly fitted or top-dose-only effect; inactive = no such curve, though single readings can be large or run the other way. Potencies of inconclusive entries are doubtful fits and often do not repeat.

Assay: Primary qHTS for Identification of Small Molecule Inhibitors of Huntingtin Promoter Activity; note: nearly all actives have a fitted effect of over 50% in size
Conditions: HEK293 HTT promoter firefly luciferase reporter (activity 0% = vehicle and -100% = no light), 24 h; series mostly up to 57.5 µM
Method in brief: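 HEK293 cells carrying firefly luciferase reporters were seeded at 2,500 per well in Opti-MEM and cultured for 24 h. They were then treated with compounds at up to 57.5 uM final for 24 h at 37 degrees C before Dual-Glo luminescence readout.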
Potency is the fitted concentration of half-maximal effect; tags give direction and shape of the fitted curve.

Potency, inconclusive:
C=C1C(=O)O[C@H]2[C@@H]1CCC(C)=CCC[C@@]1(C)O[C@@H]21 43.2 µM [inhibitor, single point]
CCn1c(CN2CCCCC2)nc2cc(NC(=O)c3ccc([N+](=O)[O-])cc3)ccc21 11.2 µM [inhibitor, partial curve]
Cc1ccsc1CN(C(=O)c1oc2ccccc2c1C)C1CCS(=O)(=O)C1 (stereo not drawn) 15.8 µM [inhibitor, partial curve, poor fit]
Cc1cccc(-n2ncc3c(N4CCCCCC4)ncnc32)c1 1.26 µM [inhibitor, full curve, poor fit]
O=S(=O)(c1ccccc1)c1nc(-c2ccc(F)cc2)oc1N1CCCCCC1 31.6 µM [inhibitor, single point]
Cc1cccc(NC(=O)Cn2c(C(F)(F)F)nc3ccccc32)c1C 28.2 µM [inhibitor, partial curve, poor fit]
CCOC(=O)c1c(S(=O)(=O)N2CCC(C(=O)N3CCN(c4cc(C)ccc4C)CC3)CC2)c(C)n(C)c1C 15.8 µM [inhibitor, single point]
CCOc1ccccc1CNS(=O)(=O)c1csc(C(N)=O)c1 39.8 µM [inhibitor, partial curve, poor fit]
O=C(NC1CCCCC1)c1ccc(CSc2nc3cccnc3n2Cc2ccccc2F)cc1 35.5 µM [inhibitor, single point]
COC(=O)c1cccc(NC(=O)Nc2cc(C(=O)NCc3cccc(F)c3)ccc2N2CCCC2)c1 39.8 µM [inhibitor, partial curve, poor fit]
CN(C)c1ccc(CNC(=O)CCCn2ccc3cc(S(=O)(=O)N4CCCC4)ccc32)cc1 10 µM [inhibitor, partial curve]
COc1cccc(N2CCN(S(=O)(=O)c3ccc4c(c3)CCCN4C(C)=O)CC2)c1 22.4 µM [inhibitor, partial curve, poor fit]
CCOc1ccc(C2C(C(=O)Nc3ccc(Cl)cc3)=C(C)Nc3nc(C(F)(F)F)nn32)cc1 (stereo not drawn) 17.8 µM [inhibitor, partial curve, poor fit]
Cc1ccccc1NC(=O)CN(c1ccc(Cl)cc1Cl)S(=O)(=O)c1ccccc1 35.5 µM [inhibitor, partial curve, poor fit]
O=S(=O)(NCc1ccccc1Cl)c1ccc(N2CCCCS2(=O)=O)cc1 31.6 µM [inhibitor, partial curve, poor fit]
Cc1cccc(C(=O)Nc2nc(-c3nnn(-c4cc(F)ccc4F)c3C)ns2)c1 17.8 µM [inhibitor, partial curve, poor fit]
CC1CCN(S(=O)(=O)c2ccc3c(c2)N(CC(=O)O)C(=O)CO3)CC1 28.2 µM [inhibitor, partial curve, poor fit]
COc1ccc(-c2cc(C(F)(F)F)n3nc(C(=O)NCC45CC6CC(CC(C6)C4)C5)cc3n2)cc1OC 35.5 µM [inhibitor, partial curve, poor fit]
Cc1ccc2ccc3cc(C(=O)N4CCN(c5ccccc5)CC4)nc3c2[nH]1 17.8 µM [inhibitor, single point]
CCOC(=O)C1=C(CN(CC)Cc2ccccc2)NC(=O)NC1c1ccc(OC(C)C)cc1 (stereo not drawn) 28.2 µM [inhibitor, single point]
CCOc1ccc(Nc2nc(C)c(NC(=O)c3cccc(OC)c3)c(Nc3ccc(OCC)cc3)n2)cc1 20 µM [inhibitor, partial curve, poor fit]
COc1ccc(NC(=O)c2c(NCc3cccc(F)c3)sc3c2CCCC3)c(OC)c1 39.8 µM [inhibitor, single point]
Cc1ccc(Cl)cc1-n1ncc2c(N3CCC(C)CC3)ncnc21 17.8 µM [inhibitor, partial curve]
CCOC(=O)c1ccc(N2C(=O)c3n[nH]c(-c4ccco4)c3C2c2ccc(F)cc2)cc1 (stereo not drawn) 31.6 µM [inhibitor, partial curve, poor fit]
Cc1cccc(CC(=O)NCCc2csc(-c3ccc(C(F)(F)F)cc3)n2)c1 39.8 µM [inhibitor, single point]
CCC(CC)C(=O)Nc1c(C(=O)N2CCN(c3ccccc3F)CC2)oc2ccccc12 31.6 µM [inhibitor, partial curve, poor fit]
Cc1cc(C)cc(Oc2c(C(F)(F)F)oc3c(CN4CCCC(C)C4)c(O)ccc3c2=O)c1 (stereo not drawn) 35.5 µM [inhibitor, single point]
COc1ccc(F)cc1S(=O)(=O)NCCc1csc(-c2ccc(Cl)cc2)n1 39.8 µM [inhibitor, partial curve, poor fit]
CCOc1ccc(-c2cn(-c3ccc(OC)cc3)c(SCC(=O)Nc3ccccc3Cl)n2)cc1 14.1 µM [inhibitor, partial curve, poor fit]
CCC(=O)Nc1sc2c(c1C(=O)Nc1ccc(OC)cc1)CCC(C(C)(C)C)C2 (stereo not drawn) 2.82 µM [inhibitor, partial curve, poor fit]
COc1ccc(OC)c(NC(=O)CSC2=Nc3ccccc3C3=NC(CC(=O)NCc4ccco4)C(=O)N23)c1 (stereo not drawn) 39.8 µM [inhibitor, single point]
Cc1oc(-c2ccccc2F)nc1CS(=O)(=O)CC(=O)N1CCN(c2cccc(C(F)(F)F)c2)CC1 39.8 µM [inhibitor, single point]
N#Cc1ccc(C(=O)Nc2ccc(Cl)c(-c3nc4cc(Cl)ccc4o3)c2)c(F)c1 22.4 µM [inhibitor, partial curve, poor fit]
COc1ccc(C(=O)NCC(c2cccnc2)N2CCN(c3ccc(F)cc3)CC2)cc1 (stereo not drawn) 25.1 µM [inhibitor, partial curve, poor fit]
Nc1nc(N)c(S(=O)(=O)c2ccccc2)c(Nc2ccc(Br)cc2)n1 44.7 µM [inhibitor, partial curve, poor fit]
O=C(CSc1ccc2nc(-c3ccccc3)cn2n1)Nc1ccccc1C(F)(F)F 39.8 µM [inhibitor, single point]
O=C(NCCc1ccc(Cl)cc1)c1cccn1-c1nnc(N2CCCCC2)s1 22.4 µM [inhibitor, single point]
COc1ccc(N2CCN(C(=O)CSCc3nc(-c4ccccc4Cl)oc3C)CC2)cc1 35.5 µM [inhibitor, single point]
Cc1ccc(C(=O)Nc2ccc(-n3c(C)nc4ccccc4c3=O)cc2)cc1[N+](=O)[O-] 39.8 µM [inhibitor, single point]
CCOC(=O)c1ccc(N2C(=O)c3n[nH]c(-c4cccs4)c3C2c2ccc(O)c(OC)c2)cc1 (stereo not drawn) 28.2 µM [inhibitor, single point]
COc1cc(NC(=O)c2cc(-c3ccccc3O)no2)cc(OC)c1OC 10 µM [inhibitor, partial curve]
CCOc1ccc(CNC(=O)C2CCN(C3=NS(=O)(=O)C(c4ccc(C)cc4)=C3CC)CC2)cc1 28.2 µM [inhibitor, partial curve, poor fit]
COc1cccc(Cn2c(SCc3ccc(C(=O)N4CCC(C)CC4)cc3)nc3ccncc32)c1 25.1 µM [inhibitor, partial curve]
COc1cc(NC(=O)CCCSc2nc(-c3ccco3)cc(C(F)(F)F)n2)cc(OC)c1OC 22.4 µM [inhibitor, partial curve, poor fit]
CCN(c1ccccc1)S(=O)(=O)c1cc(C(=O)Nc2ccc(Br)cc2)ccc1F 15.8 µM [inhibitor, partial curve, poor fit]

Potency, inactive:
CCCCN(CCN(CCCC)C(=O)N1CCOCC1)C(=O)N1CCOCC1
Cc1ccc(NC(=O)Cn2nnc(C(=O)NCCc3ccccc3)c2N)cc1C
O=C(NCCc1csc2nc(-c3ccc(F)cc3)nn12)c1ccco1
Oc1ccc(NCc2ccc(OCc3ccccc3Cl)cc2)cc1
O=C(NCCc1csc(-c2cccnc2)n1)c1ccc(F)c(F)c1
CCOC(=O)c1c(NC(=O)c2cc(=O)c3ccc(C)cc3o2)sc(C)c1C
CC(=O)Nc1ccc(-c2nnc(SCC(=O)c3ccc([N+](=O)[O-])cc3)o2)cc1
CC(C)c1ccc(NC(=O)CCNS(=O)(=O)c2ccc3c(c2)CCCC(=O)N3)cc1
COc1ccc(OC)c(NC(=O)CSc2n[nH]c(-c3ccccc3Cl)n2)c1
CCc1ccc(NC(=O)C2CCN(c3nnc(-n4c(C)ccc4C)s3)CC2)cc1
CN(C1CCCCC1)S(=O)(=O)c1ccc(C(=O)Nc2sc3c(c2C(N)=O)CC(C)(C)NC3(C)C)cc1
CCOC(=O)c1c(Nc2ccccc2)nnc(-c2ccccc2)c1-c1ccccc1

Potency, active:
CC(C)OCc1cc(CN2CCN(c3ccccc3)CC2)c(O)c2ncccc12 12.6 µM
